The experiment has as its system primary human hepatic stellate cells (donor 1). Put plainly: scaled lipid accumulation score (0 = DMSO-like, 1 = nortriptyline-like); higher = stronger HSC inactivation (lipid re-accumulation), active = hit call of the paper. Conditions: 48 h.
Where [1] appears, read: library stock concentration: 1 mM.
Setting [2] is: library stock concentration: 10 mM.
The mark [3] stands for this setting: library stock concentration: 3.33 mM.
Where [4] appears, read: library stock concentration: 2 mM.
The mark [5] stands for this setting: library stock concentration: 80 uM.
Where [6] appears, read: library stock concentration: 400 uM.

Molecules are shown by their SMILES. Where “and” joins values, the source holds several entries; their conditions need not be identical. Equal values may be shown once. Where a name gives a salt, the structure may show the parent alone. The campaign covered roughly 5,800 compounds. About 620 (11%) showed activity.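 Rule for the calls: active = score above a cut-off or among the top three wells of a plate; in these data no inactive exceeds 0.85.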 The list shows a part of the results, in another mix than the full data.

Regarding `CCCCCCC(=O)SC[C@H](COP(=O)([O-])OCC[N+](C)(C)C)SC(=O)CCCCCC` [1,2-bis(heptanoylthio) Glycerophosphocholine], the “scaled lipid accumulation score” value under setting [1] is inactive: ≤ 0.
For the molecule `O=C1CN(/N=C/c2ccc([N+](=O)[O-])o2)C(=O)N1` [Nitrofurantoin], the “scaled lipid accumulation score” value is inactive: ≤ 0. Besides, under setting [2], the “scaled lipid accumulation score” value is inactive: ≤ 0.
As for `O=C1CN(/N=C/c2ccc([N+](=O)[O-])o2)C(=O)N1`, under setting [2], the “scaled lipid accumulation score” value was inactive: ≤ 0.
Regarding `CS(=O)(=O)c1ccc(-c2cc(Br)sc2-c2ccc(F)cc2)cc1`, the “scaled lipid accumulation score” value runs as follows: under setting [1], inactive: ≤ 0; under setting [2], inactive: ≤ 0 and inactive: ≤ -0.006.
In the case of `CC(C)N(CCCNC(=O)Nc1ccc(C(C)(C)C)cc1)C[C@H]1O[C@@H](n2cc(Br)c3c(N)ncnc32)[C@H](O)[C@@H]1O`, under setting [3], the “scaled lipid accumulation score” value was inactive: 0.805.
Turning to `CC1=C(CC(=O)O)c2cc(F)ccc2/C1=C\c1ccc(S(C)(=O)=O)cc1` [Sulindac sulfone], the “scaled lipid accumulation score” value under setting [2] is inactive: ≤ 0.
Still for that read-out and setting: next, `CCOC(=O)C1=C(COCCN)NC(C)=C(C(=O)OC)C1c1ccccc1Cl.O=S(=O)(O)c1ccccc1` (centres undefined) [Amlodipine besylate]: active: 1.02.
Regarding `C[C@H](N)[C@H](O)c1cccc(O)c1` [Metaraminol bitartrate], the “scaled lipid accumulation score” value was inactive: ≤ 0. Besides, the “scaled lipid accumulation score” value (library stock concentration: 6.3 mM) was inactive: ≤ 0. For the same molecule, the “scaled lipid accumulation score” value under setting [2] is inactive: ≤ -0.027.
For `CCN(CC)CCNC(=O)c1c(C)[nH]c(/C=C2\C(=O)Nc3ccc(F)cc32)c1C.O=C(O)C[C@H](O)C(=O)O`, the “scaled lipid accumulation score” value under setting [4] was active: 1.66.
Regarding `COc1ccc(C(=O)/C(Br)=C\C(=O)O)cc1` [Bromebric acid], the “scaled lipid accumulation score” value (library stock concentration: 7 mM) is inactive: ≤ -0.006.
As for `CCN(CC)CCOC(=O)C(Cc1cccc2ccccc12)CC1CCCO1` (centres undefined) [Nafronyl oxalate], the “scaled lipid accumulation score” value is inactive: 0.312. Under setting [2], the “scaled lipid accumulation score” value is inactive: ≤ -0.027.
On to `NC(=O)N1C(=O)/C(=C(\O)c2cccs2)c2cc(Cl)ccc21` [Tenidap], for which the “scaled lipid accumulation score” value under setting [2] was inactive: ≤ -0.001.
As for `CC/C=C\C/C=C\C/C=C\C/C=C\C/C=C\CCCC(=O)O[C@H](COCCCCCCCCCCCCCCCC)COP(=O)([O-])OCC[N+](C)(C)C` [Eicosapentaenoyl PAF C-16], under setting [1], the “scaled lipid accumulation score” value is inactive: ≤ 0.
As to `CC1(C)S[C@@H]2[C@H](NC(=O)C(C(=O)O)c3ccccc3)C(=O)N2[C@H]1C(=O)O` (some centres undefined) [Carbenicillin disodium], the “scaled lipid accumulation score” value runs as follows: under setting [3], inactive: ≤ 0; (library stock concentration: 4.7 mM) inactive: ≤ -0.001; under setting [2], inactive: ≤ -0.001 and inactive: ≤ 0.
`Cc1cc(OCCCS(C)(=O)=O)cc(C)c1-c1cccc(COc2ccc3c(c2)OC[C@H]3CC(=O)O)c1`: the “scaled lipid accumulation score” value is inactive: 0.029 under setting [3] and inactive: 0.138 under setting [2].
`C=C[C@@]1(C)CC(=O)[C@]2(O)[C@@]3(C)[C@@H](O)CCC(C)(C)[C@@H]3[C@H](O)[C@H](OC(C)=O)[C@@]2(C)O1` [Forskolin]: the “scaled lipid accumulation score” value is inactive: ≤ 0 under setting [3]; inactive: ≤ 0 and inactive: ≤ -0.07 and inactive: 0.019 under setting [2]; inactive: ≤ -0.012 (library stock concentration: 12.2 mM).
Turning to `C=C[C@@]1(C)CC(=O)[C@]2(O)[C@@]3(C)[C@@H](O)CCC(C)(C)[C@@H]3[C@H](O)[C@H](OC(C)=O)[C@@]2(C)O1` [Colforsin], the “scaled lipid accumulation score” value was inactive: ≤ 0 (library stock concentration: 4.9 mM) and inactive: ≤ -0.027 under setting [2].
As for `CN(Cc1cnc2nc(N)nc(N)c2n1)c1ccc(C(=O)NC(CCC(=O)O)C(=O)O)cc1` (racemic) [Methotrexate(+/-)], the “scaled lipid accumulation score” value was inactive: 0.043 (library stock concentration: 4.4 mM) and inactive: ≤ 0 under setting [2].
For the molecule `O=C(CCCCCN1C(=O)c2cccc3cccc(c23)C1=O)NO` [Scriptaid], the “scaled lipid accumulation score” value is, setting by setting: under setting [3], inactive: 0.343; under setting [2], inactive: 0.57 and inactive: 0.396.
With `Cc1ccc(NC2=CC(=O)c3sc(C)nc3C2=O)cc1` [Ryuvidine], under setting [2], the “scaled lipid accumulation score” value was active: 0.904.
Consider `C/C(=C(\CCOP(=O)(O)O)SC(=O)c1ccccc1)N(C=O)Cc1cnc(C)nc1N` [Benfotiamine], for which the “scaled lipid accumulation score” value was inactive: ≤ 0. Besides, the “scaled lipid accumulation score” value under setting [2] is inactive: ≤ 0.
For the molecule `COc1cc2/c(=N/c3ccc(Br)cc3F)nc[nH]c2cc1OCC1CCN(C)CC1` [Vandetanib], the “scaled lipid accumulation score” value is inactive: 0.09 under setting [5] and inactive: 0.381 under setting [6].
As to `COc1cc2/c(=N/c3ccc(Br)cc3F)nc[nH]c2cc1OCC1CCN(C)CC1` [Vandetanib  (ZD6474, Zactima) (10 mM)], the “scaled lipid accumulation score” value under setting [2] was inactive: 0.445.
On the same count and under the same terms, next, `COc1cc2/c(=N/c3ccc(Br)cc3F)nc[nH]c2cc1OCC1CCN(C)CC1` [Vandetanib (ZD6474)]: inactive: 0.754.
With `Nc1c2c(nc3ccccc13)CCCC2`, the “scaled lipid accumulation score” value (library stock concentration: 9.7 mM) was inactive: 0.039.
Take `Nc1c2c(nc3ccccc13)CCCC2` [9-Amino-1,2,3,4-tetrahydroacridine hydrochloride]: the “scaled lipid accumulation score” value under setting [2] was inactive: 0.401.
Same read-out and setting: the result for `Nc1c2c(nc3ccccc13)CCCC2` [Tacrine hydrochloride] reads inactive: 0.064.
Consider `Nc1c2c(nc3ccccc13)CCCC2` [Tacrine (hydrochloride)], for which the “scaled lipid accumulation score” value under setting [1] is inactive: 0.026.
As to `CCCCC(CC)COC(=O)C(C#N)=C(c1ccccc1)c1ccccc1` (centres undefined), the “scaled lipid accumulation score” value under setting [2] is inactive: 0.062.
As to `CCCCCCCCCCCCCCCCOC[C@H](CO)OC(C)=O` [Hexadecyl Acetyl Glycerol], under setting [1], the “scaled lipid accumulation score” value was inactive: ≤ 0.
For the molecule `Clc1ccc2c(c1)C(N1CCNCC1)=Nc1ccccc1O2` [Amoxapine], under setting [2], the “scaled lipid accumulation score” value was active: 1.05.
Take `O=c1sn(-c2cccc3ccccc23)c(=O)n1Cc1ccccc1` [Tideglusib]: the “scaled lipid accumulation score” value under setting [5] is inactive: ≤ 0, the “scaled lipid accumulation score” value under setting [6] was inactive: 0.037, the “scaled lipid accumulation score” value under setting [4] was inactive: 0.351 and the “scaled lipid accumulation score” value under setting [2] is inactive: 0.769.
As to `COc1ccc2c(c1)c(C1=C(c3c[nH]c4ccccc34)C(=O)NC1=O)cn2CCCN(C)C`, the “scaled lipid accumulation score” value is, setting by setting: under setting [1], inactive: 0.018; under setting [3], inactive: 0.054 and inactive: ≤ 0; under setting [2], inactive: 0.706.
For the molecule `O=c1cc(-c2ccccc2)oc2cc(O)cc(O)c12` [Chrysin], the “scaled lipid accumulation score” value is inactive: 0.048. In addition, under setting [3], the “scaled lipid accumulation score” value is inactive: ≤ 0. Further, the “scaled lipid accumulation score” value under setting [2] is inactive: ≤ 0 and inactive: 0.161.
As for `O=C(/C=C/c1ccc(O)c(O)c1)c1ccc(O)cc1O` [Butein], the “scaled lipid accumulation score” value reads like this: under setting [3], inactive: ≤ -0.009; under setting [2], inactive: 0.299.
Regarding `CC[C@H]1OC(=O)C[C@@H](O)[C@H](C)[C@@H](O[C@@H]2O[C@H](C)[C@@H](O[C@H]3C[C@@](C)(O)[C@@H](O)[C@H](C)O3)[C@H](N(C)C)[C@H]2O)[C@@H](CC=O)C[C@@H](C)C(=O)/C=C/C(C)=C/[C@@H]1CO[C@@H]1O[C@H](C)[C@@H](O)[C@@H](OC)[C@H]1OC` [Tylosin tartrate], the “scaled lipid accumulation score” value under setting [2] was inactive: 0.119.

Values taken from the supplement of paper PMC9135407.
